Results are given in words; binding and its absence hold for the method and conditions named. Binding seen in cells or lysates may run through a third protein. Some entries that bind do so weakly or less than the wild type. Tags and fused reporters may be left off the sequences shown.
Assays:
[1] = target: MYC-tagged STING (WT), Q86WV6; assay: co-IP; HEK293T cells transfected with tagged proteins; whole-cell extracts incubated with anti-myc beads, washed five times with low-salt lysis buffer, immunoblot; some samples treated with Kyn or cGAMP; conditions: remark: other sources report otherwise
[2] = target: MYC-STING (K236R) (UniProt Q86WV6); assay: as above

Sequences of proteins named here, by UniProt entry; tags and fusion partners are left off. A change or cut given only in a name is not applied to a line headed by its entry.
UniProt Q86WV6: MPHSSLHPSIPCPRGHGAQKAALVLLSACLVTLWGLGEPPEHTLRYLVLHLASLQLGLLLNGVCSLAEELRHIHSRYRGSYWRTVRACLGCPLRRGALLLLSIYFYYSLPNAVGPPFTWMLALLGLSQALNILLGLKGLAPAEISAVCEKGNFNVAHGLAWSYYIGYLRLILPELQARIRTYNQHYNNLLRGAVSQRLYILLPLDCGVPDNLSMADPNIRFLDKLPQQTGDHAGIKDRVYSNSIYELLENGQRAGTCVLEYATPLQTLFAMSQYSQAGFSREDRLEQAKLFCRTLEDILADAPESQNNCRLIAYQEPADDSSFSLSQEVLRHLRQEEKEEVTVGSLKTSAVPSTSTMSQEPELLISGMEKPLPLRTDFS

Row | binding [1] | binding [2] | Binder
1 | binds | – | FLAG-TBK1 (WT), Q9UHD2 1-729 (protein) MQSTSNHLWLLSDILGQGATANVFRGRHKKTGDLFAIKVFNNISFLRPVDVQMREFEVLKKLNHKNIVKLFAIEEETTTRHKVLIMEFCPCGSLYTVLEEPSNAYGLPESEFLIVLRDVVGGMNHLRENGIVHRDIKPGNIMRVIGEDGQSVYKLTDFGAARELEDDEQFVSLYGTEEYLHPDMYERAVLRKDHQKKYGATVDLWSIGVTFYHAATGSLPFRPFEGPRRNKEVMYKIITGKPSGAISGVQKAENGPIDWSGDMPVSCSLSRGLQVLLTPVLANILEADQEKCWGFDQFFAETSDILHRMVIHVFSLQQMTAHKIYIHSYNTATIFHELVYKQTKIISSNQELIYEGRRLVLEPGRLAQHFPKTTEENPIFVVSREPLNTIGLIYEKISLPKVHPRYDLDGDASMAKAITGVVCYACRIASTLLLYQELMRKGIRWLIELIKDDYNETVHKKTEVVITLDFCIRNIEKTVKVYEKLMKINLEAAELGEISDIHTKLLRLSSSQGTIETSLQDIDSRLSPGGSLADAWAHQEGTHPKDRNVEKLQVLLNCMTEIYYQFKKDKAERRLAYNEEQIHKFDKQKLYYHATKAMTHFTDECVKKYEAFLNKSEEWIRKMLHLRKQLLSLTNQCFDIEEEVSKYQEYTNELQETLPQKMFTASSGIKHTMTPIYPSSNTLVEMTLGMKKLKEEMEGVVKELAENNHILERFGSLTMDGGLRNVDCL
2 | – | binds | FLAG-TBK1 (WT) (protein, UniProt Q9UHD2 1-729) MQSTSNHLWLLSDILGQGATANVFRGRHKKTGDLFAIKVFNNISFLRPVDVQMREFEVLKKLNHKNIVKLFAIEEETTTRHKVLIMEFCPCGSLYTVLEEPSNAYGLPESEFLIVLRDVVGGMNHLRENGIVHRDIKPGNIMRVIGEDGQSVYKLTDFGAARELEDDEQFVSLYGTEEYLHPDMYERAVLRKDHQKKYGATVDLWSIGVTFYHAATGSLPFRPFEGPRRNKEVMYKIITGKPSGAISGVQKAENGPIDWSGDMPVSCSLSRGLQVLLTPVLANILEADQEKCWGFDQFFAETSDILHRMVIHVFSLQQMTAHKIYIHSYNTATIFHELVYKQTKIISSNQELIYEGRRLVLEPGRLAQHFPKTTEENPIFVVSREPLNTIGLIYEKISLPKVHPRYDLDGDASMAKAITGVVCYACRIASTLLLYQELMRKGIRWLIELIKDDYNETVHKKTEVVITLDFCIRNIEKTVKVYEKLMKINLEAAELGEISDIHTKLLRLSSSQGTIETSLQDIDSRLSPGGSLADAWAHQEGTHPKDRNVEKLQVLLNCMTEIYYQFKKDKAERRLAYNEEQIHKFDKQKLYYHATKAMTHFTDECVKKYEAFLNKSEEWIRKMLHLRKQLLSLTNQCFDIEEEVSKYQEYTNELQETLPQKMFTASSGIKHTMTPIYPSSNTLVEMTLGMKKLKEEMEGVVKELAENNHILERFGSLTMDGGLRNVDCL

From PMC10480448
